Source: paper PMC12223841, “Compounds Isolated from Paepalanthus spp. (Eriocaulaceae) and Their Evaluation in Antimicrobial, Cytotoxic, and Antiviral Assays” (ACS Omega, 2025)

Molecular target: ZIKV NS2B-NS3pro (Zika virus, UniProt A0A024B7W1)
Assay: biochemical

COc1c(O)cc2oc(-c3ccc(O)cc3)c(OC3OC(COC(=O)C=Cc4ccc(O)cc4)C(O)C(O)C3O)c(=O)c2c1O [Compound 4, 6-Methoxykaempferol-3-O-β-D-6″-(p-coumaroyl)-glycopyranoside]
IC50: 1.95 µM
